{"source": "PubChem BioAssay AID743279", "about": "(National Center for Advancing Translational Sciences (NCATS), 2014)", "note": "Out of some 360,000 compounds screened, about 17,000 (4.7%) were called active. The shares of active, inactive and inconclusive entries below differ from those in the screen. No stated cut-off is given here; in the data, active means activity change below about -50%; inconclusive means mostly about -30% to -49%; inactive means weaker than that. On the % scale 0 is the no-effect control and ±100 the full control effect."}
{"experiment": "qHTS for Inhibitors of Inflammasome Signaling: IL-1-beta AlphaLISA Primary Screen", "details": "THP-1 LPS/ATP IL-1B secretion, 16 h; at 57.5 µM, stronger effect = lower value", "procedure,_shortened": "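Secreted IL-1B measured by AlphaLISA bead assay after 16 h compound exposure of THP-1 cells; compounds (final up to 57.5 uM) added 1 h before LPS (250 ng/mL) and ATP (1.25 mM) stimulation; lower signal means less secretion.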"}
{"smiles": "CN(C)CC(O)COc1ccc(C(C)(C)c2ccc(OCC(O)CN(C)C)cc2)cc1", "note": "(stereo not drawn)", "activity change": "inconclusive: -31.8%"}
{"smiles": "C=CC[C@@H](CC(=O)N(CCO)Cc1ccccc1)C(=O)NC[C@@H](OC(=O)[C@@H](CC=C)Cc1ccc(F)cc1)c1ccccc1", "activity change": "inconclusive: -36.1%"}
{"smiles": "CN(C)c1ccc(C(=O)C(O)c2ccccc2Cl)cc1", "note": "(stereo not drawn)", "activity change": "inconclusive: -36.3%"}
{"smiles": "CC(=O)NC(c1ccc(C(C)C)cc1)c1c(O)ccc2ccccc12", "note": "(stereo not drawn)", "activity change": "active: -74.9%"}
{"smiles": "O=C(COc1ccccc1-c1ccccc1)NCCN1C(=O)S/C(=C\\c2cccnc2)C1=O", "activity change": "inactive: -0.803%"}
{"smiles": "Cn1cccc1-c1nc2ccc(NC(=O)c3cccs3)cc2[nH]1", "activity change": "inconclusive: -45.4%"}
{"smiles": "CC(C)C(=O)N1CCC(CN=Cc2c(O)n(C3CCCCC3)c(=O)n(C3CCCCC3)c2=O)CC1", "activity change": "inconclusive: -39.3%"}
{"smiles": "O=C1/C(=C\\c2ccc([N+](=O)[O-])cc2)CS(=O)(=O)C/C1=C/c1ccc([N+](=O)[O-])cc1", "activity change": "active: -99.9%"}
{"smiles": "O=C(NCc1ccc(F)cc1)C(c1ccncc1)N(C(=O)c1csnn1)C1CC1", "note": "(stereo not drawn)", "activity change": "inactive: 14.6%"}
{"smiles": "O=C1NCCC/C1=N\\Nc1ccc(Br)cc1", "activity change": "inactive: -16.1%"}
{"smiles": "N#C/C(=C\\c1cc2ccccc2nc1N1CCCCC1)C(N)=O", "activity change": "inconclusive: -36.1%"}
{"smiles": "Cc1cc(=S)[nH]c2ccccc12", "activity change": "inactive: 7.91%"}
{"smiles": "COc1ccc(OC2C(=O)N(Cc3ccc4c(c3)OCO4)C2c2sccc2C)cc1", "note": "(stereo not drawn)", "activity change": "inconclusive: -37.6%"}
{"smiles": "O=C(Nc1ccncc1)Nc1ccccn1", "activity change": "inconclusive: -42%"}
{"smiles": "CC(OC(=O)c1c2c(nc3ccccc13)/C(=C\\c1ccc3c(c1)OCO3)CCC2)C(=O)Nc1ccc(S(N)(=O)=O)cc1", "note": "(stereo not drawn)", "activity change": "inconclusive: -39.6%"}
{"smiles": "CCOc1ccc(C(C)=O)cc1COC(=O)c1cnc(Cl)c(Cl)c1", "activity change": "active: -108%"}
{"smiles": "Cc1ccc(NC(=O)c2ccccc2NS(=O)(=O)c2ccc(Cl)s2)cc1S(=O)(=O)N1CCOCC1", "activity change": "inconclusive: -43.1%"}
{"smiles": "CC1(C(=O)NCc2cccc(C(F)(F)F)c2)CCN1Cc1ccc2ccccc2c1", "note": "(stereo not drawn)", "activity change": "inconclusive: -38.1%"}
{"smiles": "C/C=C/c1ccc(OCCOCCNCc2ccccc2)c(OC)c1", "activity change": "inconclusive: -32.9%"}
{"smiles": "COc1cc(/C=C/C2=CC(C)(C)NC(=S)N2)cc(OC)c1OC", "activity change": "active: -71.3%"}
{"smiles": "COc1ccc(C(CC(=O)c2ccccc2)CC(=O)c2ccccc2)cc1", "activity change": "inactive: -21.5%"}
{"smiles": "OCC1(Cc2ccccc2)CCCN(Cc2cnn(-c3ccccc3)c2)C1", "note": "(stereo not drawn)", "activity change": "inconclusive: -32.2%"}
{"smiles": "CC(C)N(Cc1ccccc1)C(=O)COC(=O)c1cnc(Cl)c(Cl)c1", "activity change": "active: -109%"}
{"smiles": "Nc1ccc(-c2nc3ccc(N)cc3o2)cc1", "activity change": "inconclusive: -37.5%"}
{"smiles": "Cc1nn(Cc2ccccc2)c(C)c1NC(=O)CSc1nc2sc3c(c2c(=O)n1C)CCC3", "activity change": "inactive: 38.9%"}
{"smiles": "N#Cc1cccnc1N1CCN(C(=O)c2ccc3c(c2)S(=O)(=O)c2ccccc2C3=O)CC1", "activity change": "inconclusive: -46.7%"}
{"smiles": "CCC(NC(=O)c1cc(COc2cncc(Cl)c2)on1)c1ccc(C)cc1", "note": "(stereo not drawn)", "activity change": "inconclusive: -45.2%"}
{"smiles": "C=CCOc1ccc(/C=C(\\C#N)C(=O)Nc2ccccn2)cc1OC", "activity change": "inactive: 13%"}
{"smiles": "CCC(=O)[C@@]1(C)[C@H](C)C[C@H]2[C@@H]3CCC4=CC(=O)C=C[C@]4(C)[C@H]3[C@@H](O)C[C@@]21C", "activity change": "inconclusive: -34.7%"}
{"smiles": "CCOc1ccc(S(=O)(=O)N2CCOCC2)cc1NC(=O)CN1C(=O)NC(CC)(c2ccccc2)C1=O", "note": "(stereo not drawn)", "activity change": "inactive: 17.8%"}
{"smiles": "Cc1nc(-c2ccc(S(=O)(=O)N3CCN(CCc4ccccc4)CC3)s2)cs1", "activity change": "inactive: 34.2%"}
{"smiles": "Cc1c(C)c2ccc(OCC(=O)NCCCn3ccnc3)c(C)c2oc1=O", "activity change": "inconclusive: -37.2%"}
{"smiles": "O=C(Cn1c(S(=O)(=O)Cc2ccccc2)nc2ccccc21)N1CCCCC1", "activity change": "inconclusive: -30.6%"}
{"smiles": "Cc1ccc(NC(=O)c2cnn(-c3ccccc3)c2C)cc1C", "activity change": "inconclusive: -45.6%"}
{"smiles": "COc1cc(C2NCC(c3ccc(Cl)cc3Cl)c3c2[nH]c2ccccc32)cc(OC)c1OC", "note": "(stereo not drawn)", "activity change": "active: -66.1%"}
{"smiles": "CSc1ccccc1OCc1cc(C(=O)N(C)Cc2ccc(C)o2)no1", "activity change": "active: -66.8%"}
{"smiles": "CCOC(=O)c1ccc(N2C(=O)c3n[nH]c(-c4ccco4)c3C2c2ccc([N+](=O)[O-])cc2)cc1", "note": "(stereo not drawn)", "activity change": "inconclusive: -48.7%"}
{"smiles": "Cc1ccc(NC(=O)OC(C)N2CCCCC2)cc1NC(=O)OC(C)N1CCCCC1", "note": "(stereo not drawn)", "activity change": "inconclusive: -42%"}
{"smiles": "N=c1c2c3c(sc2ncn1Nc1ccccc1)CCC3", "activity change": "inconclusive: -46.1%"}
{"smiles": "c1ccc(-n2nnnc2Oc2ccc(-c3nnco3)cc2)cc1", "activity change": "inconclusive: -41%"}
{"smiles": "COc1ccc(CNC(=O)c2ccc(Cn3cc(Br)cn3)o2)cc1", "activity change": "inconclusive: -39.4%"}
{"smiles": "CC(C)(C)CC(C)(C)Nc1c(-c2ccc(O)cc2)nc2cnccn12", "activity change": "inactive: -14.8%"}
{"smiles": "CN(C(=S)Nc1ccc(SC(F)F)cc1)C(c1ccccc1)c1ccccc1", "activity change": "inconclusive: -44.5%"}
{"smiles": "O=C(CCl)Nc1cccc(S(=O)(=O)NC2=NCCCCC2)c1", "activity change": "active: -99.3%"}
{"smiles": "O=C(NCc1ccc(F)cc1)c1cc(C2CCCN(C(=O)CCCc3ccccc3)C2)on1", "note": "(stereo not drawn)", "activity change": "inconclusive: -38.6%"}
{"smiles": "CC(=O)c1sc(NC(=O)c2c(F)cccc2F)nc1C", "activity change": "inactive: -6.68%"}
{"smiles": "Cc1sc2ncnc(N3CCN(Cc4ccccc4)CC3)c2c1-c1ccccc1", "activity change": "active: -56%"}
{"smiles": "COc1cc(C(C)=O)ccc1OCCCN1CCC(Cc2ccccc2)CC1", "activity change": "active: -55.4%"}
{"smiles": "CC(C)(C)OC(=O)NCCCC[C@H](NC(=O)c1nc[nH]c1C(=O)NCc1ccccc1)C(=O)OC(C)(C)C", "activity change": "inconclusive: -40.6%"}
{"smiles": "CCN1CCN(c2ccc(S(=O)(=O)N3CCOCC3)cc2NC(=O)C(C)Oc2cccc(Cl)c2)CC1", "note": "(stereo not drawn)", "activity change": "inconclusive: -45.1%"}
{"smiles": "CCOC(=O)c1nnc(-c2ccc(C)cc2)nc1N1CCSCC1", "activity change": "inconclusive: -46.5%"}
{"smiles": "COc1ccc2sc(/C=C/c3ccccc3O)[n+](C)c2c1", "activity change": "inconclusive: -37.5%"}
{"smiles": "CCOC(=O)C1CCC/C1=N\\NC(=O)CN(c1cc(OC)ccc1OC)S(=O)(=O)c1ccccc1", "note": "(stereo not drawn)", "activity change": "inconclusive: -38.6%"}
{"smiles": "O=C(CNC(=O)Cc1ccccc1)N=Nc1c(O)n(Cc2ccc3c(c2)OCO3)c2ccccc12", "activity change": "inconclusive: -37.7%"}
{"smiles": "O=C(O)CCN1C(=O)/C(=C\\c2ccc(OCc3ccccc3)c(OCc3ccccc3)c2)SC1=S", "activity change": "inconclusive: -43.2%"}
{"smiles": "COc1cc2c(cc1OC)/C(=C/C(=O)N1CCOCC1)NC(C)(C)C2", "activity change": "inconclusive: -30.1%"}
{"smiles": "COc1ccc(Nc2cnn(-c3nc4ccccc4s3)c(=O)c2Cl)cc1", "activity change": "active: -81.2%"}
{"smiles": "COc1ccc(Cl)cc1NC(=O)CN(C)C(=O)c1ccc(COc2ccccc2)cc1", "activity change": "inconclusive: -35.2%"}
{"smiles": "Cc1nn(-c2ccccc2)c(C)c1C(=O)OC(C)C(=O)NC1CCCCC1", "note": "(stereo not drawn)", "activity change": "inconclusive: -31.6%"}
{"smiles": "CCNC(=O)C1CCCN(C(=O)c2cccc(C#N)c2)CC1", "note": "(stereo not drawn)", "activity change": "inactive: 29.4%"}
{"smiles": "CCc1ccc(S(=O)(=O)Nc2ccc(-c3ccc4nncn4n3)cc2)s1", "activity change": "inactive: 30.8%"}
{"smiles": "O=C(NCc1ccccc1)c1csc(-c2cccnc2)n1", "activity change": "inconclusive: -40.9%"}
{"smiles": "Nc1c(C(=O)N2CCCC2)sc2nc(-c3ccccc3)ccc12", "activity change": "inconclusive: -45.8%"}
{"smiles": "O=C(c1ccncc1)N(c1ccc2oc3c(c2c1)CCCC3)S(=O)(=O)c1ccc(F)cc1", "activity change": "active: -138%"}
{"smiles": "O=[N+]([O-])/C=C\\c1ccc(N2CCCC2)c(F)c1", "activity change": "active: -55.5%"}
{"smiles": "COc1ccc(N(C)S(=O)(=O)c2ccc(Cl)c(C(=O)NCCc3ccc(Cl)cc3)c2)cc1", "activity change": "active: -55.5%"}
{"smiles": "COc1cccc2c1C(=N)c1c(O)c3c(c(O)c1C2=O)CC(O)(C(C)=O)CC3OC1CC(N)C(O)C(C)O1", "note": "(stereo not drawn)", "activity change": "active: -102%"}
{"smiles": "COc1ccccc1/C=C/CN1CCN(Cc2ccc(F)cc2)C(CCO)C1", "note": "(stereo not drawn)", "activity change": "inconclusive: -45.6%"}
{"smiles": "CCOc1ccc(C(=O)COC(=O)C2CCN(c3ccc(C(F)(F)F)cn3)CC2)cc1", "activity change": "inactive: 10.9%"}
{"smiles": "Cc1nn(-c2ccc([N+](=O)[O-])cc2)c(N)c1-c1ccccc1", "activity change": "inconclusive: -45.7%"}
{"smiles": "Cc1ccc(S(=O)(=O)N2CCN(C(=O)c3ccccc3)CC2)cc1", "activity change": "inconclusive: -31.7%"}
{"smiles": "Cc1ccc(C)c(NC(=S)N2CCN(CCO)CC2)c1", "activity change": "inactive: 5.59%"}
{"smiles": "Cc1occc1C(=O)Nc1sccc1C(N)=O", "activity change": "inconclusive: -35.9%"}
{"smiles": "Nc1c(-c2ccccc2)c(CSc2nc3ccccc3[nH]2)nn1-c1ccc(Cl)cc1", "activity change": "inconclusive: -32.7%"}
{"smiles": "CCCCCCCCCCOC(=O)Cn1c(COc2ccc(C)cc2)[n+](C)c2ccccc21", "activity change": "active: -90.4%"}
{"smiles": "CC(C)(C)n1nnnc1C(c1cccnc1)N1CCN(c2ccccc2F)CC1", "note": "(stereo not drawn)", "activity change": "inactive: 20.4%"}
{"smiles": "Cc1cccnc1C(c1ccc(F)cc1)N(C)C(=O)C1CCN(CCCOc2ccc(F)cc2)CC1", "note": "(stereo not drawn)", "activity change": "inconclusive: -30.2%"}
{"smiles": "CC1CCCCC1NC(=O)COC(=O)c1c2c(nc3ccccc13)/C(=C\\c1ccco1)CC2", "note": "(stereo not drawn)", "activity change": "inconclusive: -40.5%"}
{"smiles": "CCc1cccc(C)c1NC(=S)N(CCCN1CCN(C)CC1)Cc1cccs1", "activity change": "inconclusive: -39.6%"}
{"smiles": "CCCCn1c(N)c(N(CCOC)C(=O)c2ccc(-c3ccc(Cl)cc3)o2)c(=O)[nH]c1=O", "activity change": "inconclusive: -34.9%"}
{"smiles": "CCCCc1ccc(NS(=O)(=O)c2cccc(C(=O)N3CCCN(C)CC3)c2)cc1", "activity change": "inconclusive: -30.6%"}
{"smiles": "COC(=O)CC/C(O)=C1/C(=N)CC(C)(C)CC1=O", "activity change": "inconclusive: -46%"}
{"smiles": "Cc1ccc(C(C(=O)NC2CCCCC2)N(Cc2ccccc2)C(=O)Cc2c[nH]c3ccccc23)o1", "note": "(stereo not drawn)", "activity change": "inconclusive: -48.3%"}
